{"source": "PubChem BioAssay AID686978", "about": "(National Center for Advancing Translational Sciences (NCATS), 2013)", "note": "Where “and” joins values, the source holds several entries; their conditions need not be identical. Equal values may be shown once. Out of some 420,000 compounds screened, about 64,000 (15%) were called active. The shares of active, inactive and inconclusive entries below differ from those in the screen. Calls come from the whole dose curve; as a rule, active = well fitted inhibition curve with a large enough effect; inconclusive = small, poorly fitted or top-dose-only effect; inactive = flat fitted curve, though single readings scatter. Where the call is inconclusive, the potency comes from a doubtful curve fit. % is set by controls: 0 for no effect and ±100 for the full control effect; potency is the fitted concentration of half-maximal effect; tags give direction and shape of the fitted curve."}
{"assay": "qHTS for Inhibitors of human tyrosyl-DNA phosphodiesterase 1 (TDP1): qHTS in cells in absence of CPT; note: nearly all actives have a fitted effect of over 55% in size", "details": "DT40 Tdp1-/- hTDP1 cells, no CPT, ATP luminescence, 48 h; activity change, negative = growth inhibition: at 46.2 µM (top of the series) unless noted", "how_it_was_run": "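Compound effects on proliferation are scored in DT40 Tdp1-/-;hTDP1 cells in the absence of CPT. ATP levels (CellTiter-Glo luminescence) are recorded after a ≥48 hr, 37 °C incubation.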"}
{"smiles": "CC(C)CCNC(=O)COc1ccc2c3c(c(=O)oc2c1)CCC3", "activity change, negative = growth inhibition": "inactive: -24.6%"}
{"smiles": "COc1ccc(CCNC(=S)NC(=O)/C=C/c2ccc(C)cc2)cc1OC", "Potency": "inconclusive: 1.84 µM [inhibitor, full curve]"}
{"smiles": "COC(=O)c1cccc(NC(=O)COc2cccc([N+](=O)[O-])c2)c1", "Potency": "inconclusive: 29.1 µM [inhibitor, single point]"}
{"smiles": "COc1ccccc1NC(=O)c1ccc(CN2C(=O)C(C)=C(c3ccc(C)c(C)c3)S2(=O)=O)cc1", "Potency": "inconclusive: 6.51 µM [inhibitor, full curve, poor fit]"}
{"smiles": "NC(=O)c1nsc(C(=O)N(Cc2cccnc2)C(C(=O)NC2CCCCC2)c2ccc(F)cc2)c1N", "note": "(stereo not given)", "Potency": "inconclusive: 11.6 µM [inhibitor, partial curve, poor fit]"}
{"smiles": "O=C(Nc1ccc(OCCO)cc1)c1csc([C@@H]2O[C@H](CO)[C@H](O)[C@H](O)[C@H]2O)n1", "activity change, negative = growth inhibition": "inactive: 18.5%"}
{"smiles": "Cc1nnc(NC(=O)CSc2nc(C(C)C)nc3ccccc23)s1", "Potency": "active: 7.08 µM"}
{"smiles": "COc1ccc(C(CC(=O)O)N2Cc3ccccc3C2=O)cc1", "note": "(stereo not given)", "activity change, negative = growth inhibition": "inactive: 20.7%"}
{"smiles": "CCOc1ccccc1NC(=S)N1CCCCCC1", "Potency": "inconclusive: 25.9 µM [inhibitor, single point]"}
{"smiles": "COc1ccc(OCC(=O)NC(=S)Nc2ccc(S(=O)(=O)Nc3cc(C)on3)cc2)cc1", "activity change, negative = growth inhibition": "inactive: 6.14%"}
{"smiles": "CN(C1CCCCC1)S(=O)(=O)c1cn(C)c(=O)n(C)c1=O", "activity change, negative = growth inhibition": "inactive: -11.8%"}
{"smiles": "COc1ccc(NC(=O)CC2SC(N3CCCC3)=NC2=O)cc1Cl", "note": "(stereo not given)", "Potency": "inconclusive: 25.9 µM [inhibitor, single point]"}
{"smiles": "C#CCn1c(=NC(=O)c2ccc(Cl)s2)sc2cccc(OC)c21", "Potency": "inconclusive: 29.1 µM [inhibitor, single point]"}
{"smiles": "CCC(C(=O)NC1CCCC1)N(Cc1ccco1)C(=O)Cn1nnc(-c2ccc(C)cc2)n1", "note": "(stereo not given)", "Potency": "inconclusive: 20.6 µM [inhibitor, partial curve, poor fit]"}
{"smiles": "Cc1ccc(CNC(=O)c2ccc(CSCc3cccc(C)c3)o2)cc1", "Potency": "inconclusive: 8.2 µM [inhibitor, partial curve]"}
{"smiles": "Cc1ccccc1OCC(=O)OCC(=O)c1ccc(OCc2ccccc2)cc1", "activity change, negative = growth inhibition": "inactive: 1.77%"}
{"smiles": "CC(=O)c1c(C)[nH]c(C(=O)Nc2ccc(S(=O)(=O)N(C)C)cc2)c1C", "Potency": "inconclusive: 29.1 µM [inhibitor, single point]"}
{"smiles": "CN1CCN(C(=O)Nc2ccc3c(c2)N(C)C(=O)c2ccccc2S3)CC1", "activity change, negative = growth inhibition": "inactive: -24.2%"}
{"smiles": "Cc1scc(C(=O)N2CCN(S(C)(=O)=O)CC2)c1-c1ccccc1", "activity change, negative = growth inhibition": "inactive: -15.5%"}
{"smiles": "COc1ccc(C(C)(O)c2nc(-c3ccc(OC)c(OC)c3)cs2)cc1", "note": "(stereo not given)", "Potency": "inconclusive: 29.1 µM [inhibitor, single point]"}
{"smiles": "OCC[C@@H]1C[C@H](O)[C@@H](O)[C@]2(Cc3ccccc3CO2)O1", "activity change, negative = growth inhibition": "inactive: -10.7%"}
{"smiles": "Cc1c(C#N)c2ncnc(-c3ccccc3)c2n1-c1ccccc1", "Potency": "inconclusive: 23.1 µM [inhibitor, partial curve]"}
{"smiles": "CCOC(=O)C1=C[C@@H](c2ccccc2)N(S(=O)(=O)c2ccc(C)cc2)[C@H]1c1cccc(Cl)c1", "Potency": "active: 23.1 µM"}
{"smiles": "CCN1CCN(C(=O)CCn2c(=O)c3cccn3c3cccnc32)CC1", "activity change, negative = growth inhibition": "inactive: 15.2%"}
{"smiles": "COc1ccc(NC(=O)c2cc(-c3ccco3)on2)cc1", "Potency": "inconclusive: 8.2 µM [inhibitor, full curve]"}
{"smiles": "CC1=NN(c2nc(C)cc(C)n2)C(=O)C1CCC(C)C", "note": "(stereo not given)", "Potency": "inconclusive: 29.1 µM [inhibitor, single point]"}
{"smiles": "CCn1c(/C=C/Nc2ccccc2)[n+](CC)c2cc(Cl)c(Cl)cc21", "Potency": "active: 3.26 µM"}
{"smiles": "COC(=O)c1c(NC(=O)COC(=O)c2ccc(Cl)nc2)sc(C)c1C", "activity change, negative = growth inhibition": "inactive: 8.2%"}
{"smiles": "O=C1CC(N2CCCCC2)C(=O)N1c1ccccc1", "note": "(stereo not given)", "Potency": "inconclusive: 29.1 µM [inhibitor, single point]"}
{"smiles": "O=C(NCc1ccccc1CN1CCCC1)c1cccc(S(=O)(=O)Nc2ccc(F)cc2)c1", "Potency": "inconclusive: 20.6 µM [inhibitor, single point]"}
{"smiles": "CN1CCc2nc(NC(=O)c3cccc(OC(F)F)c3)sc2C1", "activity change, negative = growth inhibition": "inactive: -4.68%"}
{"smiles": "C=CCNC(=S)Nc1sc2c(c1C(=O)OCC)CC(C)(CC)OC2", "note": "(stereo not given)", "Potency": "inconclusive: 29.1 µM [inhibitor, single point]"}
{"smiles": "Cc1ccc(S(=O)(=O)n2c(N)nc3cc(C)c(C)cc32)cc1", "Potency": "inconclusive: 29.1 µM [inhibitor, single point]"}
{"smiles": "Cc1cccc(NC(=O)N2CCC(n3nnc4cc(C)ccc43)CC2)c1", "Potency": "inconclusive: 23.1 µM [inhibitor, single point]"}
{"smiles": "O=C(Cc1ccc(F)cc1)N1CCC(CC2CC(c3cccc(Br)c3)=NO2)(C(=O)NCC2CCCCC2)CC1", "note": "(stereo not given)", "Potency": "inconclusive: 29.1 µM [inhibitor, single point]"}
{"smiles": "CCN(CC)CCNC(=O)Cn1cnc2sc(C)c(S(=O)(=O)N3CCOCC3)c2c1=O", "activity change, negative = growth inhibition": "inactive: -4.5%"}
{"smiles": "Cc1ccc(NS(=O)(=O)c2ccc3[nH]c4c(c3c2)CCCC4)cc1N(C)C", "Potency": "inconclusive: 18.4 µM [inhibitor, single point]"}
{"smiles": "CC(C)CC(COCc1cccc(C(F)(F)F)c1)N1CCN(C(=O)c2cccc(C(F)(F)F)c2)CCC1=O", "note": "(stereo not given)", "Potency": "active: 23.1 µM"}
{"smiles": "COc1ccc(NC(=O)CSc2c(C)nn(-c3nnc(C)c(=O)[nH]3)c2C)cc1", "activity change, negative = growth inhibition": "inactive: 3.61%"}
{"smiles": "Cc1nc2ccn(Cc3cccs3)c(=O)c2cc1C(=O)N1CCN(c2ccccc2F)CC1", "Potency": "inconclusive: 20.6 µM [inhibitor, single point]"}
{"smiles": "CC(c1ccco1)N(C(=O)c1ccccc1F)c1ccccn1", "note": "(stereo not given)", "activity change, negative = growth inhibition": "inactive: -6.99%"}
{"smiles": "Cc1ccccc1Cn1nc(C)c(NC(=O)C2(C)CC2(Cl)Cl)c1C", "note": "(stereo not given)", "activity change, negative = growth inhibition": "inactive: -4.09%"}
{"smiles": "Cn1cccc1CN1CCC[C@]2(N[C@H](c3ccccc3)[C@@H]3C(=O)N(Cc4ccccc4)C(=O)[C@@H]32)C1=O", "Potency": "inconclusive: 14.6 µM [inhibitor, partial curve, poor fit]"}
{"smiles": "Cc1ccc(CNC(=O)C2(S(=O)(=O)c3ccccc3)CC=CC2)cc1", "activity change, negative = growth inhibition": "inactive: -1.86%"}
{"smiles": "COc1ccccc1/C=C1\\N=C(C(C)(C)C)OC1=O", "Potency": "inconclusive: 18.4 µM [inhibitor, single point]"}
{"smiles": "O=C(Nc1cnn(Cc2ccc(Cl)cc2)c1)c1ccc([N+](=O)[O-])cc1", "Potency": "inconclusive: 18.4 µM [inhibitor, single point]"}
{"smiles": "Cc1nc2ccccc2c2oc(C(=O)N3CCCC(C)C3)cc12", "note": "(stereo not given)", "Potency": "inconclusive: 4.11 µM [inhibitor, single point]"}
{"smiles": "COC(=O)/C=C1\\OCc2ccc(C)cc21", "activity change, negative = growth inhibition": "inactive: 19.6%"}
{"smiles": "CC1CCN(S(=O)(=O)c2ccc3c(c2)N(CC(=O)NCCc2ccccc2)C(=O)CO3)CC1", "Potency": "active: 20.6 µM"}
{"smiles": "COc1cccc(NC(=O)c2ccc3c(c2)CCN3S(C)(=O)=O)c1", "Potency": "inconclusive: 14.6 µM [inhibitor, partial curve] and inconclusive: 29.1 µM [inhibitor, single point]"}
{"smiles": "O=C(NC(C(=O)N/N=C/c1c2ccccc2cc2ccccc12)c1n[nH]c(=O)c2ccccc12)c1ccccc1", "note": "(stereo not given)", "Potency": "active: 10.3 µM"}
{"smiles": "CN(Cc1ccccc1)Cc1nc2c(c(=O)n(C)c(=O)n2C)n1CCCc1ccccc1", "Potency": "active: 15.8 µM"}
{"smiles": "CC1=C(c2ccc(C(C)C)cc2)S(=O)(=O)NC1=NCc1ccccc1Br", "Potency": "active: 13 µM"}
{"smiles": "CC(NC(=O)Nc1ccc(Cl)c(Cl)c1)C(c1ccccc1)N1CCOCC1", "note": "(stereo not given)", "Potency": "inconclusive: 29.1 µM [inhibitor, single point]"}
{"smiles": "Cc1ccc(S(=O)(=O)N(C)CC(=O)O/N=C(\\N)c2cccnc2)cc1", "Potency": "inconclusive: 11.6 µM [inhibitor, partial curve]"}
{"smiles": "Cc1csc[n+]1CCC1CCCCC1", "Potency": "active: 10 µM"}
{"smiles": "Cc1sc(NC(=O)Cn2[nH]c(=O)c3ccccc3c2=O)nc1-c1ccccc1", "Potency": "inconclusive: 20.6 µM [inhibitor, single point]"}
{"smiles": "Cc1cccc(NC(=O)Cn2c(=O)nc(-c3ccccc3)c3ccccc32)c1C", "Potency": "active: 20.6 µM"}
{"smiles": "COC(=O)C1=C(C)N(C)C(=S)NC1c1cc(OC)ccc1OC", "note": "(stereo not given)", "activity change, negative = growth inhibition": "inactive: -6.15%"}
{"smiles": "CCn1c2ccccc2c2cc(CN3CCN(Cc4cc(OC)ccc4O)CC3)ccc21", "Potency": "inconclusive: 29.1 µM [inhibitor, single point]"}
{"smiles": "COC(=O)Cc1ccc(NC(=S)NCc2cccc(OC)c2)cc1", "Potency": "inconclusive: 29.1 µM [inhibitor, single point]"}
{"smiles": "CCOc1ccc(-n2c(N)c(-c3nc4ccccc4n3C)c3nc4ccccc4nc32)cc1", "Potency": "inconclusive: 13 µM [inhibitor, partial curve]"}
{"smiles": "CC(C)NC(=O)C1(C)Cc2c(-c3cccc(C(F)(F)F)c3)ccnc2O1", "note": "(stereo not given)", "Potency": "active: 11.6 µM"}
{"smiles": "COc1ccc(Cl)cc1Nc1nc(C)cc(C)c1C(N)=O", "activity change, negative = growth inhibition": "inactive: -5.25%"}
{"smiles": "COc1ccc(C2=NOC(C(=O)Nc3cccnc3)C2)cc1", "note": "(stereo not given)", "Potency": "inconclusive: 29.1 µM [inhibitor, single point]"}
{"smiles": "C[C@@H]1CN([C@H](C)CO)C(=O)CCCn2nncc2CO[C@@H]1CN(C)S(=O)(=O)c1ccc(Cl)cc1", "activity change, negative = growth inhibition": "inactive: -7.67%"}
{"smiles": "N#C/C(=C(\\O)c1cc(Cl)sc1Cl)c1nc2ccccc2[nH]1", "Potency": "inconclusive: 11.6 µM [inhibitor, partial curve]"}
{"smiles": "Cc1cccc(NS(=O)(=O)c2ccc(C(=O)N3CCCC3)cc2)c1C", "Potency": "active: 14.6 µM"}
{"smiles": "CC(C)(C)OC(=O)C[C@H]1C/C=C\\C[C@@H](CC(=O)N(CCO)Cc2ccccc2)C(=O)N2CCC[C@@H]2COC1=O", "Potency": "inconclusive: 23.1 µM [inhibitor, single point]"}
{"smiles": "CNC(=O)C1CCC(Cn2c(=O)c3sccc3n(CC(=O)Nc3ccc(C)c(F)c3)c2=O)CC1", "note": "(stereo not given)", "Potency": "inconclusive: 23.1 µM [inhibitor, single point]"}
